# Measurements published in paper PMC4336329 (PLoS ONE, 2015).
# In all, about 310,000 compounds went through this assay and about 14,000 (4.5%) showed an effect of 50% or more. Effects have a minus sign here. Some of the results follow.
# Biological target: human ether-à-go-go-related gene (hERG) potassium channel (human, UniProt Q12809)
# Assay: primary screen, population patch clamp on CHO cells stably expressing hERG
# 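Note: peak tail current of the secondary pulse compared with the same well before compound.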
# Chain of human ether-à-go-go-related gene (hERG) potassium channel (Q12809 whole entry, looked up): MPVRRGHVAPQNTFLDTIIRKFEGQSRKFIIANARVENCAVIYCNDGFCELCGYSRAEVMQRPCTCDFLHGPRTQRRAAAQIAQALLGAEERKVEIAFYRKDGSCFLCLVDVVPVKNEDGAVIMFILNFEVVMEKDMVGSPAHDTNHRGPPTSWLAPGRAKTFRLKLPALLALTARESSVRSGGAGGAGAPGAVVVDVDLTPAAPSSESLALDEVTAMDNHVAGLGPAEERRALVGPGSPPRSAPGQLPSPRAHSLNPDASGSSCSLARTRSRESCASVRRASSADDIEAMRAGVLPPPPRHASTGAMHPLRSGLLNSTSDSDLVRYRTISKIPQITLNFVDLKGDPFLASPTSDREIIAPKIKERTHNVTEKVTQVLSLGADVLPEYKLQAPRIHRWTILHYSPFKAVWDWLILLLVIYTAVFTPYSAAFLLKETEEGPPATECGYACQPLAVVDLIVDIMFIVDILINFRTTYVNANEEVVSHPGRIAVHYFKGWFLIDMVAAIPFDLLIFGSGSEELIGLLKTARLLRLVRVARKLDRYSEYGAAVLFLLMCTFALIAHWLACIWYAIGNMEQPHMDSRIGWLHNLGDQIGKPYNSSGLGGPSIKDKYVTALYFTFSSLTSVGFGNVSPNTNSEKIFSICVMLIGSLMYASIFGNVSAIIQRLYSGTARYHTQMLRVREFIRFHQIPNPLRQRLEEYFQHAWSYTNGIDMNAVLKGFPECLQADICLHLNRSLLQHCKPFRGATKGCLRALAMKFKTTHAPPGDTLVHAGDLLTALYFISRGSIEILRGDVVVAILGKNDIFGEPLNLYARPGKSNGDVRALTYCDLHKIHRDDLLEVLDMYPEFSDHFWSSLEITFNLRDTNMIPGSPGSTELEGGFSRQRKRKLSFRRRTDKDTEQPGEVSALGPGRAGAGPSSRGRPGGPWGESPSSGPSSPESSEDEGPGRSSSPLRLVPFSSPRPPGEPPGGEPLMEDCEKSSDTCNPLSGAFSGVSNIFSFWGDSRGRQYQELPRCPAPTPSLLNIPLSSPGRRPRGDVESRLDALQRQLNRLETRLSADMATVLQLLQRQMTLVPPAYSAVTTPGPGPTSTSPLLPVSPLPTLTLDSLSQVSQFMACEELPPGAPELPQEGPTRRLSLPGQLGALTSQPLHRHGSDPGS
row,Structure (SMILES),"hERG current change (%, negative = inhibition) at 10uM [%]"
1,COC(=O)c1c(-c2ccccc2)noc1C,14.3
2,Cc1cc(C(=O)CSc2nnc(-c3ccco3)o2)c(C)n1Cc1ccco1,4.88
3,O=C(NCc1ccccn1)Nc1ccc(Br)cc1Cl,12.8
4,CN(C(=O)c1c(Cl)nc2sccn12)C1CCCCC1,-14.5
5,Cc1nnc(NC(=O)C(C)Sc2nncn2C)s1 (stereo not shown),11.2
6,O=C(CNCc1ccccc1Cl)Nc1ccccc1N1CCCCC1.O=C(O)C(=O)O,20.5
7,O=C(NCc1cccs1)C1CCN(S(=O)(=O)c2cccc([N+](=O)[O-])c2)CC1,-15.7
8,CC1CCCN(C(=O)c2ccc3c(c2)C(=O)N(CCC2=CCCCC2)C3=O)C1 (stereo not shown),-11.9
9,Cc1cc(C(=O)N2CCc3c([nH]c4ccccc34)C2c2cccc(Cl)c2)nn1C (stereo not shown),9.71
10,CCOC(=O)c1nnn(-c2ccc([N+](=O)[O-])cc2[N+](=O)[O-])c1C,8.05
11,O=C(NCCCN1CCOCC1)c1ccc(Cl)cc1Cl,-1.8
12,COc1cccc([C@@H]2Oc3ccc(OC)cc3C(=O)[C@H]2OC(=O)Nc2cc(OC)c(OC)c(OC)c2)c1,15.4
13,CC12CCC(=O)N1C(C(=O)Nc1cc(Cl)ccc1N1CCCC1)CS2 (stereo not shown),-26.4
14,CCCCCC(=O)Nc1ccc(Cl)cn1,2.75
15,CC(C)(C)NC(=O)Cn1nnnc1-c1nonc1N,-4.36
16,Cc1ccc(O)c(C(=O)c2cnc3c(c2)COc2ccccc2-3)c1,-1.61
17,CC(C)C(=O)N1CCN(c2ccccc2NC(=O)c2ccc(C#N)cc2F)CC1,-72.2
18,CC(C)Cn1c(N)c(C(=O)COC(=O)c2c(O)c(Cl)cc(Cl)c2Cl)c(=O)n(C)c1=O,-79.8
19,C[C@@H](C(=O)N1CCNCC1)n1cc(CCC(=O)O)nn1.Cl,19.2
20,Cc1c(/C=C2\SC(=Nc3cccc(C(=O)O)c3)NC2=O)c2ccccc2n1C,3.21
21,O=C(NC1CCN(C(=O)NC2CCCCC2)CC1)c1cccc(F)c1,-9.83
22,CN(C(=O)c1ccc2c(c1)S(=O)(=O)N=C1CCCCCN12)c1ccccc1,9.44

row,Structure (SMILES),"hERG current change (%, negative = inhibition) at 10uM [%]"
1,Clc1nc(Cl)nc(N(c2ccccc2)c2ccccc2)n1,2.52
2,CC1CC(C)(C)CC2(C1)NC(=O)N(CC(=O)Nc1nccs1)C2=O (stereo not shown),-8.19
3,C=CCNC(=O)COc1ccc(S(=O)(=O)Nc2ccc(OCC)cc2)cc1,-2.47
4,CC(C)n1nc(C(=O)Nc2cccc(S(=O)(=O)N3CCOCC3)c2)c2ccccc2c1=O,-16.8
5,CC1=C/C(=N\NC(=S)NCc2ccccc2)CC1,-0.473
6,O=C(NS(=O)(=O)c1ccc(NC(=O)C2CCCO2)cc1)c1ccccc1 (stereo not shown),-15.3
7,Cc1ccccc1NC(=S)N1CCN(c2ccccc2C)CC1,20.4
8,CC(CCc1ccccc1)NCC#N.Cl (stereo not shown),18.9
9,COC(=O)/C=C1\NC(=O)C(C)S1 (stereo not shown),17.7
10,CCC(C(=O)NC1CCCC1)N(C(=O)c1snc(C(N)=O)c1N)c1ccc(OC)c(OC)c1 (stereo not shown),15.5
11,Cc1ccc(-n2c(O)c(/C=N/n3cnnc3)c3ccccc3c2=O)cc1 [7972794],0.826
12,Cc1ccc(-c2n[nH]c(=S)nc2-c2ccc(C)cc2)cc1,18.7
13,Cc1cc(C(=O)NC2CC(C)(C)Cc3c2cnn3-c2ccc(F)cc2)no1 (stereo not shown),-32.8
14,O=S(=O)(NCCO)c1ccc2c(c1)Cc1cc(S(=O)(=O)NCCO)ccc1-2,16.4
15,O=C(c1ccc(NC2=NC3CS(=O)(=O)CC3S2)cc1)N1CCc2ccccc2C1 (stereo not shown),3.08
16,Cc1cccc(C)c1NC(=O)COc1cccc(/C=N/NC(=O)C(=O)NCc2ccccc2)c1,-13.1
17,COC(=O)c1cc2c(-c3ccccc3)cc3ccccn3c-2c1C(=O)OC,14.7
18,Cc1ccc(S(=O)(=O)N2CCCC(C(=O)Nc3ccc(C(=O)O)cc3)C2)cc1Cl (stereo not shown),-12.1
19,COc1ccc(C)cc1NC(=O)CCc1c(C)nn(-c2ccc(N3CCCCC3)nn2)c1C,-20.2
20,Cc1ccc2c(ccc(=S)n2C)c1,22.1
21,N=c1c2c(ncn1Cc1ccco1)Oc1c(ccc3ccccc13)C2c1ccccc1 (stereo not shown),-26.5
22,O=C(CC1OC(=O)c2ccccc21)NC1CCCCC1 (stereo not shown),5.5

row,Structure (SMILES),"hERG current change (%, negative = inhibition) at 10uM [%]"
1,O=C(CSc1ccccc1C(=O)O)NCc1ccccc1,2.08
2,CCCN1C(=O)C(O)(CC(=O)c2cccc(OC)c2)c2ccccc21 (stereo not shown),1.94
3,Cc1noc(C)c1CSc1ncnc2sc3c(c12)CCC(C)C3 (stereo not shown),14.7
4,COc1ccc(OC)c(/C=C/c2nc3ccccc3[nH]c2=O)c1,14.3
5,Cc1c(NC(=O)COc2ccc3ccccc3c2)c(=O)n(-c2ccccc2)n1C,-39.3
6,Cc1ccc(SC[C@H](C)CN2CC[C@H](NC(=O)OCc3ccccc3)CCC2=O)cc1,-41.6
7,CC(C)(C)C(=O)Nc1nc(-c2ccc3c(c2)OCO3)cs1,-36.4
8,CC(=O)c1cccc(S(=O)(=O)NC2CCSc3ccccc32)c1 (stereo not shown),-2.51
9,C=CCn1c(SCC(=O)O)nnc1-c1cccs1,0.617
10,O=C1C=C(Nc2ccc(Cl)cc2)CC(c2ccco2)C1 (stereo not shown),-1.85
11,O=C(CCCOc1ccc(Cl)cc1)NC1CCCCC1,5.28
12,COc1ccc(C(CNC(=O)c2cc(F)c(F)c(F)c2F)N2CCOCC2)cc1 (stereo not shown),7.98
13,CCN(CC)CC(=O)Nc1ccc2c(c1)N(C(=O)CN(CC)CC)c1ccccc1CC2.Cl.O,8.05
14,Cc1ccsc1/C=N/NC(=S)NCCc1ccccc1,-2.74
15,CN(Cc1ccc(F)cc1)C(=O)c1ccc(NS(=O)(=O)c2ccc3[nH]c(=O)[nH]c3c2)cc1,12.1
16,C(=N\Nc1nc(-c2ccccc2)cs1)/c1ccncc1,-50.5
17,CSc1ccc(CCNC(=O)CCc2nnc3ccc(N4CCC5(CC4)OCCO5)nn23)cc1,-0.439
18,CC(C)CN(C(=O)Cn1c(C(F)(F)F)nc2ccccc21)C1CCS(=O)(=O)C1 (stereo not shown),-9.53
19,COCCNC(=O)c1onc(CSc2ccc(F)c(F)c2)c1C(=O)O,-1.38
20,CCOc1cc2[nH]c(=S)n(CCN3CCCCC3CC)c(=O)c2cc1OCC (stereo not shown),-44.5
21,CC(=O)c1c(C)[nH]c(C(=O)CSc2nnc(C)s2)c1C,13.9
22,Cn1c(=O)c2cc3ccc(Cl)cc3nc2n(C)c1=O,6.69

row,Structure (SMILES),"hERG current change (%, negative = inhibition) at 10uM [%]"
1,S=c1[nH]nc(-c2cccc(Cl)c2)n1/N=C/c1ccco1,4.37
2,COC(=O)c1ccccc1NC(=O)/C=C/C(=O)O,-8.47
3,Br.CCOc1ccc(N=c2scc(-c3ccc(OC)cc3)n2CCO)cc1,15.8
4,CC(=O)NNC(=O)c1cc2sccc2s1,2.9
5,Cc1cc(NS(=O)(=O)c2ccc(NC(=O)CCCOc3ccc(Cl)cc3)cc2)no1,15.1
6,Cc1[nH]nc2c1C(c1ccc(OC(=O)c3ccco3)cc1)C(C#N)=C(N)O2 (stereo not shown),9.84
7,Cc1cc(C)c(S(=O)(=O)Nc2ccc(O)c(Sc3ncn[nH]3)c2)c(C)c1,4.49
8,Cc1cccn2c(=O)c(/C=C(\C#N)C(N)=O)c(N3CCCCCC3)nc12,-13.2
9,COc1ccc(C(=O)O/N=C(/C)c2cccs2)cc1,7.41
10,Cc1cc2c(OCC(O)CN3CCCCC3)cccc2[nH]1 (stereo not shown),-3.76
11,COc1ccc(C2NC(c3ccc(OC)cc3)C(C)C(=O)C2C)cc1 (stereo not shown),-4.47
12,CC1Cc2ccccc2C(=O)N1 (stereo not shown),9.73
13,N#Cc1ccccc1CN1C(=O)S/C(=C/c2cccn2-c2ccc(C(=O)O)cc2)C1=O,0.594
14,O=C(COC(=O)c1ccc(O)cc1O)Nc1cccc2ccccc12,-20.8
15,Cc1ccc(-c2ccc(/C=N/N3C(=O)C4C5C=CC(CC5)C4C3=O)o2)c([N+](=O)[O-])c1 (stereo not shown),-16.7
16,CC(OC(=O)Cc1coc2cc3c(cc12)CCC3)C(=O)NC(N)=O (stereo not shown),11.1
17,COc1ccc(C2C(C#N)=C(N)OC3=C2C(=O)CC(C)C3)c(OC)c1OC (stereo not shown),-3.9
18,Cc1ccc2c(c1)N(CC(=O)Nc1c(C)cccc1C)C(=O)c1cccnc1O2,11.5
19,COc1ccc(OCC(O)Cn2c(=N)n(CCN3CCCCC3)c3ccccc32)cc1.Cl (stereo not shown),-68.1
20,CC(=O)c1cccc(Nc2cc(C)nc3ccccc23)c1.Cl,-64
21,CCSc1ccc2c(c1)N(CCCN1CCN(C)CC1)c1ccccc1S2.O=C(O)CC(O)C(=O)O,-54.2
22,CCOC(=O)[C@@H]1[C@H]2COc3ccc(Br)cc3[C@@H]2N2C(=O)N(c3ccc(Cl)cc3)C(=O)[C@]12C,0.415
